In PubChem BioAssay AID485360 (National Center for Advancing Translational Sciences (NCATS), 2010):
Hit rate of the full screen: of about 230,000 compounds, about 1,500 (0.65%) were called active. Inconclusive means that the source gave no clear call. Such entries were picked first, then a sample of the others. Calls follow the shape of the dose curve; as a rule, active = well fitted inhibition curve with a large enough effect; inconclusive = small, poorly fitted or top-dose-only effect; inactive = no such curve, though single readings can be large or run the other way. A potency beside an inconclusive call is a rough fit, not a confirmed value.

The molecules below were run against Lethal(3)malignant brain tumor-like protein 1 (Homo sapiens) (UniProt Q9Y468) (assay: qHTS Assay for the Inhibitors of L3MBTL1). Details: AlphaScreen L3MBTL1–H3K9me1 peptide binding; series mostly up to 57.1 µM.
UniProt Q9Y468, sequence (Q9Y468 whole entry, looked up): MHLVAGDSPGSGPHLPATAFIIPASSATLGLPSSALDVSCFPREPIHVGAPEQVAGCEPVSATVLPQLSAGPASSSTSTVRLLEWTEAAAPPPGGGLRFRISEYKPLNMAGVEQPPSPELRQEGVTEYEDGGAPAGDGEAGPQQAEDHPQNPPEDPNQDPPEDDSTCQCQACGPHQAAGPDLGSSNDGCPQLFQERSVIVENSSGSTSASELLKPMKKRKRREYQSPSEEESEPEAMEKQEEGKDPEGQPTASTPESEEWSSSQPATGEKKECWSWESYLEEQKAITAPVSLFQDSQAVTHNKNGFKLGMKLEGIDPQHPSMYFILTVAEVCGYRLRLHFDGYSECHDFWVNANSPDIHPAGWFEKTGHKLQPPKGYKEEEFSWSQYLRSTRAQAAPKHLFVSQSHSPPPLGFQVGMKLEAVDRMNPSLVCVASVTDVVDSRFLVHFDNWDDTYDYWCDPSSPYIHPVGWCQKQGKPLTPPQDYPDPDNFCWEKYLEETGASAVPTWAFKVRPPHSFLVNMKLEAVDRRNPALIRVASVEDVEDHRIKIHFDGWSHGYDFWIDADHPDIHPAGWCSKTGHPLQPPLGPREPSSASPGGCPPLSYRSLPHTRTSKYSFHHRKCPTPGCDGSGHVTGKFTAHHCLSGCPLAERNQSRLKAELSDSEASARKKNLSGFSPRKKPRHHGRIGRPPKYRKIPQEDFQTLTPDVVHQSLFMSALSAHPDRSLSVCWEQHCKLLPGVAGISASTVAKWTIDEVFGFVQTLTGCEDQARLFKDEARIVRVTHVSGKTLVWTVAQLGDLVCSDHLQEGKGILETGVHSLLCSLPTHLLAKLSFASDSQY
Summary of the method: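 AlphaScreen assay: L3MBTL1 (50 nM final) was preincubated 30 min at room temperature with biotinylated H3(1-15)K9me1 peptide (75 nM final), then 30 min with library compounds; streptavidin donor and nickel chelate acceptor beads (10 ug/mL final) added, 30 min dark.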
Also: nearly all actives have a fitted effect of over 60% in size.
Potency is read from the fitted curve at half-maximal effect; tags tell the direction and shape of the fitted curve.

Row | SMILES | Potency
1 | COc1ccc(CNC(=O)c2c([S-])n(-c3ccc(C)cc3)c3cccc[n+]23)cc1 | inconclusive: 1.78 µM [inhibitor, full curve, poor fit]
2 | CCOc1ccc(-c2csc(/C(C#N)=C\c3ccc(O)c([N+](=O)[O-])c3)n2)cc1 | inconclusive: 20 µM [inhibitor, partial curve]
3 | CSc1ccccc1NC(=O)COC(=O)/C=C/c1ccco1 | inconclusive: 39.8 µM [inhibitor, single point]
4 | O=C1N=C(N2CCN(c3ccccc3)CC2)S/C1=C/c1cccs1 | inconclusive: 4.47 µM [inhibitor, single point]
5 | S=C(NCc1cccnc1)Nc1ccc(Oc2ccc(Cl)cc2)cc1 | inconclusive: 35.5 µM [inhibitor, partial curve]
6 | Nc1nnc(-c2ccc(Cl)c(Cl)c2)s1 | inconclusive: 25.1 µM [inhibitor, single point]
7 | OCCNCCSc1ccc(Cl)cc1 | inactive
8 | Cc1nn(C)c(C)c1N1C(=O)c2cccc3c(Br)ccc(c23)C1=O | inconclusive: 28.2 µM [inhibitor, single point]
9 | CN(CC(=O)Nc1cccc(F)c1)C(=O)c1ccc(OCc2cn3ccccc3n2)cc1 | inconclusive: 28.2 µM [inhibitor, single point]
10 | Oc1ccccc1-c1nc2ccccc2nc1-c1ccccc1 | inconclusive: 28.2 µM [inhibitor, single point]
11 | CCOC(=O)c1[nH]c2ccccc2c1NC(=O)Nc1ccc(OC)cc1 | inactive
12 | CC1(C)CC(=O)C(C=Nc2ccc(C(=O)c3ccccc3)cc2N=CC2=C(O)CC(C)(C)CC2=O)=C(O)C1 | inconclusive: 0.158 µM [inhibitor, full curve, poor fit]
13 | CN(CCCOc1ccccc1F)Cc1ccccc1 | inconclusive: 0.708 µM [inhibitor, single point]
14 | O=C(Nc1cccc(S(=O)(=O)NC2=NCCC2)c1)c1cc(-c2ccccn2)nc2ccccc12 | inconclusive: 3.55 µM [inhibitor, full curve]
15 | COc1ccc(C(=O)NCCCSC)cc1OC1CCN(C(C)C)CC1 | inactive
16 | CCN(CC)c1ccc(-n2cc3c(=O)n(C)c(=O)n(C)c3c2)cc1 | inconclusive: 39.8 µM [inhibitor, single point]
17 | Cc1c(NC(=O)C(C)OC(=O)CC2Sc3ccccc3NC2=O)c(=O)n(-c2ccccc2)n1C (stereo unspecified) | inactive
18 | Cc1ccsc1/C=N/N=C/c1sccc1C | inconclusive: 1.26 µM [inhibitor, partial curve]
19 | O=[N+]([O-])c1cc(S(=O)(=O)Nc2ccccc2)ccc1N1CCN(c2ccccc2)CC1 | inconclusive: 39.8 µM [inhibitor, single point]
20 | CCc1ccc(-c2c(C)sc(NC(C)=O)c2C(N)=O)cc1 | inactive
21 | CC(=O)N1CCN(C(=O)CCc2nc3sc4c(c3c(=O)[nH]2)CCCC4)CC1 | inactive
22 | CCn1c(SCC(=O)c2ccc(O)c(O)c2)nnc1-c1ccccc1OC | inconclusive: 25.1 µM [inhibitor, single point]
23 | CN1CCN(C(=S)c2cn(Cc3ccc(Br)cc3)c3ccccc23)CC1 | inconclusive: 22.4 µM [inhibitor, single point]
24 | O=C(CNC(=S)N(Cc1ccccc1Cl)C1CCCC1)NCCN1CCOCC1 | inconclusive: 2.24 µM [inhibitor, full curve, poor fit]

Row | SMILES | Potency
25 | O=C1Nc2ccccc2Oc2cc(Oc3ccccc3)ccc21 | inconclusive: 31.6 µM [inhibitor, single point]
26 | CC1Cc2ccccc2N1CC(=O)Nc1cccc(S(N)(=O)=O)c1 (stereo unspecified) | inconclusive: 0.891 µM [inhibitor, full curve, poor fit]
27 | CCOc1ccc(/C=C/C(=O)c2ccccc2)cc1OC | inactive
28 | S=c1[nH]cnc2sc(Nc3ccccc3)nc12 | inactive
29 | Cc1ccc(-n2nc(-c3ccccc3)cc2Nc2ccccc2N)cc1 | inconclusive: 28.2 µM [inhibitor, partial curve]
30 | CN(CC(=O)Nc1ccc(F)cc1)C(=O)CCc1nc2sc3c(c2c(=O)[nH]1)CCCC3 | inconclusive: 22.4 µM [inhibitor, single point]
31 | Cc1ccccc1OCCn1cc(C(=S)N2CCN(C)CC2)c2ccccc21 | inconclusive: 17.8 µM [inhibitor, partial curve]
32 | O=C(CN1C(=O)COc2ccccc21)NCCCN1CCc2ccccc2C1 | inactive
33 | O=C(CSc1ccc2ccccc2c1)N1CCN(c2ccc(O)cc2)CC1 | inconclusive: 22.4 µM [inhibitor, partial curve]
34 | CCCCOc1ccc(Cc2n[nH]c(=S)n2N)cc1 | inconclusive: 39.8 µM [inhibitor, partial curve, poor fit]
35 | O=C(COC(=O)c1ccccc1Cl)Nc1nccs1 | inconclusive: 6.31 µM [inhibitor, single point]
36 | C=C(C)C(=O)NC1=NN(c2ccccc2)C(=O)C1 | inconclusive: 14.1 µM [inhibitor, partial curve]
37 | CCNC(=O)N(C)C[C@H]1N[C@@](CC)(C(=O)OC)[C@H]2C(=O)N(C)C(=O)[C@@H]12 | inconclusive: 0.631 µM [inhibitor, single point]
38 | O=C(O)CCCC(=O)Nc1cc([N+](=O)[O-])ccc1O | inactive
39 | CC(=O)N(C1=C(N2CCOCC2)C(=O)c2ccccc2C1=O)c1ccc(C(=O)O)cc1 | inactive
40 | CCn1c(C)nc2cc(C(=O)N/N=C/c3cccc(O)c3O)ccc21 | inconclusive: 17.8 µM [inhibitor, partial curve]
41 | CN(C)c1ccc(C2CC(c3cccc(NS(C)(=O)=O)c3)=NN2C(=O)c2ccccc2)cc1 (stereo unspecified) | inconclusive: 20 µM [inhibitor, single point]
42 | C=CCOc1c(CNc2ccc(C(=O)O)cc2)cccc1OC | inactive
43 | O=C(O)c1cc(O)c2c(c1)[C@H]([C@H]1c3cc(C(=O)O)cc(O)c3C(=O)c3c(O[C@@H]4O[C@H](CO)[C@@H](O)[C@H](O)[C@H]4O)cccc31)c1cccc(OC3O[C@H](CO)[C@@H](O)[C@H](O)[C@H]3O)c1C2=O (stereo partly specified) | active: 0.158 µM
44 | CC1=NN(Cc2ccccc2)C(=O)/C1=C/c1ccc(N(C)C)cc1 | inconclusive: 7.08 µM [inhibitor, full curve]
45 | CCOC(=O)NC(=O)COC(=O)c1ccc(Sc2ncn[nH]2)c([N+](=O)[O-])c1 | inactive
46 | CN(CC(=O)N1CCCCC1)S(=O)(=O)c1cccc2cccnc12 | inactive
47 | NNC(=O)c1sccc1OCc1ccc(Cl)cc1 | inconclusive: 0.501 µM [inhibitor, full curve, poor fit]
48 | N#C/C(=C\C=C\c1ccccc1)c1nc(-c2ccc3c(c2)OCO3)cs1 | inconclusive: 6.31 µM [inhibitor, single point]

Row | SMILES | Potency
49 | O=C(Cn1nc(-c2ccc(Cl)cc2)ccc1=O)NCC1CCCO1 (stereo unspecified) | inactive
50 | COc1ccc(/C=C/C(=O)c2ccccn2)cc1 | inconclusive: 10 µM [inhibitor, partial curve]
51 | NS(=O)(=O)c1ccc(NCc2ccccc2OCc2ccc(F)cc2)cc1 | inactive
52 | Cc1ccc(-c2csc3ncn(CC#N)c(=O)c23)cc1C | active: 22.4 µM
53 | COC(=O)[C@@]1(C)[C@H]2C(=O)N(Cc3ccccc3)C(=O)[C@H]2[C@H]2CN=C(SCc3ccccc3)N21 | inconclusive: 35.5 µM [inhibitor, single point]
54 | O=C(O)CN1C(=O)/C(=C\c2ccccc2OCc2ccc(Cl)cc2Cl)SC1=S | inconclusive: 28.2 µM [inhibitor, single point]
55 | COc1nc(OC)nc(N2CCC(NC(=O)C(Cc3ccc(C(C)C)cc3)NC(C)=O)CC2)n1 (stereo unspecified) | inconclusive: 1.41 µM [inhibitor, full curve]
56 | COc1ccccc1CNc1ccc(N2CCCCC2)cc1 | inconclusive: 25.1 µM [inhibitor, single point]
57 | COc1cccc(Nc2ccc(N3CCCCC3)cc2)c1OC | active: 35.5 µM
58 | CCOC(=O)C1=CNS(=O)(=O)NC1c1ccccc1 (stereo unspecified) | inactive
59 | CCN1C(=O)/C(=C/c2ccc(N3CCCC3)cc2)NC1=S | inconclusive: 35.5 µM [inhibitor, single point]
60 | O=C(Oc1c(CN2CCOCC2)cc(Cl)c2cccnc12)c1ccccc1Cl | active: 14.1 µM
61 | COc1cccc(C(=O)NCCS(=O)(=O)N2CCC3(CC2)OCCO3)c1 | inactive
62 | COc1cccc(/C=N/Nc2cc(N3CCOCC3)ncn2)c1O | inconclusive: 12.6 µM [inhibitor, partial curve]
63 | COc1ccc(CCNC(=O)Cc2ccc(NC3=NC4CS(=O)(=O)CC4S3)cc2)c(OC)c1 (stereo unspecified) | inactive
64 | Cc1cc([N+](=O)[O-])cc(/C=N\NC(=O)C2COc3ccccc3O2)c1O (stereo unspecified) | active: 25.1 µM
65 | O=C(CSc1nc2ccccc2c(=O)n1-c1ccccc1)c1c[nH]c2ccccc12 | inconclusive: 35.5 µM [inhibitor, single point]
66 | CN(C)S(=O)(=O)N(CC(=O)Nc1ccccc1C(F)(F)F)c1ccccc1 | inconclusive: 39.8 µM [inhibitor, single point]
67 | Cc1cc(Cl)ccc1OCC(=O)NNC(=O)CCOc1ccccc1 | inactive
68 | CC1CCCc2sc3ncn(N)c(=N)c3c21 (stereo unspecified) | inconclusive: 0.1 µM [inhibitor, full curve, poor fit]
69 | Cc1ccccc1CN1CCN(C(=O)c2cccc3ccccc23)CC1 | inactive
70 | COC(=O)C(NNc1ccccc1)(NC(=O)c1ccc(F)cc1)C(F)(F)F (stereo unspecified) | inactive
71 | Cc1ccc(NC(=O)Cc2ccc(-n3cccc3)cc2)c(C)c1 | inconclusive: 28.2 µM [inhibitor, single point]
